Experimental data reported in PubChem BioAssay AID743279 (National Center for Advancing Translational Sciences (NCATS), 2014).
The campaign covered roughly 360,000 compounds. About 17,000 (4.7%) were called active. The inconclusive results got no clear call from the source; some entries with a clear call stand among them for comparison. Cut-off read from the data, not from the text of the source: active = activity change below about -50%; inconclusive = mostly about -30% to -49%; inactive = weaker than that.

Assay: qHTS for Inhibitors of Inflammasome Signaling: IL-1-beta AlphaLISA Primary Screen
Conditions: THP-1 LPS/ATP IL-1B secretion, 16 h; at 57.5 µM, stronger effect = lower value
Procedure, shortened: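 Secreted IL-1B measured by AlphaLISA bead assay after 16 h compound exposure of THP-1 cells; compounds (final up to 57.5 uM) added 1 h before LPS (250 ng/mL) and ATP (1.25 mM) stimulation; lower signal means less secretion.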
% is set by controls: 0 for no effect and ±100 for the full control effect.

Activity change, inconclusive:
Cc1ccc(NC(=S)NCc2ccc(S(N)(=O)=O)cc2)cc1Cl -34.1%, Cn1c(=O)c2cc(NC(=O)CCc3ccc4c(c3)OCO4)ccc2n1Cc1ccc(F)cc1 -30.9%, O=C(N/N=C/c1ccccn1)c1ccc(NC(=O)c2ccc(F)cc2)cc1 -33.6%, c1ccc(Nc2nc(-c3ccccn3)cs2)cc1 -33.3%, Cc1ccccc1Cn1nc(C)c(NC(=O)c2noc3c2CC(C(C)(C)C)CC3)c1C (stereo not drawn) -39.7%, Fc1ccccc1C(c1nnnn1C1CCCC1)N1CCN(Cc2ccccc2)CC1 (stereo not drawn) -34.1%, CN(C)S(=O)(=O)n1cc(/C=C(\NC(=O)c2ccccc2F)C(=O)NCCCn2ccnc2)c2ccccc21 -44.5%, CN(CCOc1ccc(Cl)cc1)C(=O)c1cccc(S(=O)(=O)N2CCN(Cc3ccccc3)CC2)c1 -45.1%, N/C(=N\OC(=O)c1cccc(C(F)(F)F)c1)c1cnccn1 -44%, OC1CCN(Cc2cn(Cc3ccccc3)nc2-c2cc3ccccc3o2)CC1 -33.3%, O=C(COC(=O)C12CC3CC(CC(C3)C1)C2)Nc1ccc(OC(F)F)cc1 -30.7%, COCCNC(=O)c1ccc2c3n(nc2c1)-c1ccc(C)cc1CO3 -45.3%, Oc1ccc(-c2csc(-c3cccnc3)n2)c(O)c1 -39%, Cc1nnc(Sc2c(-c3ccccc3)c3ccc(Cl)cc3[nH]c2=O)s1 -45.2%, CC1CCCN(CCOCCOc2ccc(Cl)cc2Br)C1 (stereo not drawn) -39.9%, CC(=O)Nc1sc(C)c(C)c1C(=O)OCC(=O)Nc1cc(S(C)(=O)=O)ccc1Cl -32.7%, CSc1cccc(CN(C)C(=O)C2CCC(=O)N(CCCN3CCCC3=O)C2)c1 (stereo not drawn) -34.5%, N#C/C(=C\c1ccc(-c2ccccc2C(=O)O)o1)c1nc2ccccc2[nH]1 -33.1%, CCCc1cc(C(=O)Nc2ccc(OC)cc2[N+](=O)[O-])cs1 -42.7%, COc1ccc(N2CCN(c3ccc(Cl)nn3)CC2)cc1 -32.3%, CCOC(=O)Cc1nnc(NC(=O)CSc2ncc(-c3ccccc3)nn2)s1 -35.7%, COc1ccc(C(=O)N2CCc3cc(OC)c(OC)cc3C2c2cccc([N+](=O)[O-])c2)cc1OC (stereo not drawn) -36%, Cc1ccc(NC(=O)CCn2c(=O)oc3ccccc32)cc1 -42.8%, Cc1ccc(-n2nc3c(=O)n(CCCC(=O)NCCc4ccccc4C)nc(C)c3c2C)cc1 -39.2%, CCOc1cc(C(=O)Nc2cc(C)ccc2OC)ccc1OCC(=O)N1CCCCC1 -36.2%, Cc1sc2ncnc(N3CCC(C(=O)Nc4cc(S(C)(=O)=O)ccc4Cl)CC3)c2c1C -31.8%, CCOc1ccc(C(c2c(O)nc(SC)[nH]c2=O)c2c(O)nc(SC)[nH]c2=O)cc1 -30.5%, O=C(Nc1cccc(Oc2ccccc2)c1)C1Cc2c(-c3cccc(F)c3)ccnc2O1 (stereo not drawn) -31.2%, C[C@@H]1C[C@H]2[C@@H]3C[C@H](F)C4=CC(=O)C=C[C@]4(C)[C@@]3(Cl)[C@@H](O)C[C@]2(C)[C@H]1C(=O)COC(=O)C(C)(C)C -50%, CCCCOC(=O)C1=C(C)NC(=O)NC1c1cc2c(cc1Br)OCO2 (stereo not drawn) -43.1%, CC(C)(C)CN1CCNC[C@H]1Cc1cccc2ccccc12 -41.3%, CCOC(=O)c1c(NC(=O)c2cccs2)sc2c1CC(C)(C)OC2 -48.5%

Activity change, inactive:
O=S(=O)(NCC(c1ccc2c(c1)OCO2)N1CCOCC1)c1ccc(F)cc1 (stereo not drawn) -5.9%, CCOC(=O)c1c(/N=C/C2=C(O)CC(C)(C)CC2=O)sc(C(C)=O)c1C -8.13%, C=CCc1ccccc1OCCOc1ccc([N+](=O)[O-])cc1/C=N/NC(N)=O 44%, O=C(Nc1cccc2c1CCCC2)c1cc([N+](=O)[O-])cc([N+](=O)[O-])c1 12.8%, CCCOc1cccc(C(=O)Nc2ccc3c(c2)OCCO3)c1 -3.79%, Cc1occc1-c1nnc(SCC(=O)N(C)c2ccccc2)o1 -7.07%, CC(C)C[C@@H]1CN(CCCC[C@H]2CNC(=O)C(=O)N2CCC2CCCCC2)C(=O)C(=O)N1CCC1CCCCC1 -13.8%, Cc1c(C(=O)N2CCN(c3ccccn3)CC2)sc2ncnc(N3CCOCC3)c12 -0.958%, CN(Cc1ccccc1)C(=O)c1nc[nH]c1C(=O)N1CCN(C(=O)OC(C)(C)C)CC1 0%, O=S(=O)(Cc1noc(-c2ccc(Cl)cc2)n1)Cc1ccco1 -13.8%

Activity change, active:
O=[N+]([O-])c1ccc(CN2CCN(Cc3c[nH]c4ccccc34)CC2)cc1 -68.9%, CCN(CC)S(=O)(=O)c1ccc(C(O)=C(C#N)c2nc3ccccc3n2C)cc1 -72.2%, COc1ccc(C(C)(C)C)cc1NC(=O)c1ccc2ncsc2c1 -51.3%, COc1ccc([C@H]2CC(=O)C=C(c3cccc(Cl)c3)C2)cc1OC -66%, CCOc1ccc(-c2csc(NNC3=NCCCCC3)n2)cc1 -102%, OCCN=c1cc(-c2ccccc2)oc2ccc(Cl)cc12 -70.3%, COc1ccc(CCNC(=O)c2ccc(NC(=O)CC3SC(N4CCCCC4)=NC3=O)cc2)cc1OC (stereo not drawn) -53.6%, CC(C)(CNC(=S)NCCc1ccccc1)CNC(=S)NCCc1ccccc1 -70.1%, Cc1cc(NC(=O)CS(=O)(=O)c2cn(Cc3cccc(Br)c3)c3ccccc23)no1 -54.3%, COc1ccc(/C=C/c2nc3ccccc3n2C)cc1 -72.6%, CCCCCCCCOC(=O)c1cc([N+](=O)[O-])c(Sc2ncnc3nc[nH]c23)c([N+](=O)[O-])c1 -70.7%
